Results from the BET-seq Pho4 binding data (Le et al. 2018).
Some of the results follow. Values were computed here from the reads of four pooled replicates and scatter widely.

What follows are sequences tested against T1, Pho4 (S. cerevisiae) (UniProt P07270) (assay: relative binding free energy (BET-seq); higher = weaker binding). Settings: reference: library average.
T1 sequence: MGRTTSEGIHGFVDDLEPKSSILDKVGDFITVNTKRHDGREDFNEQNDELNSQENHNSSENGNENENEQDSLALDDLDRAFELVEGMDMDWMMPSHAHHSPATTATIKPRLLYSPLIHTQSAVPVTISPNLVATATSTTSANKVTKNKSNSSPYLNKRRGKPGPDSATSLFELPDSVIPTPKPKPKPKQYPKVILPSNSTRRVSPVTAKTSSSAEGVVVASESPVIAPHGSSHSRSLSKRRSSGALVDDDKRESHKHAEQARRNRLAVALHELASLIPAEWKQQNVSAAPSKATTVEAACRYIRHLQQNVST

Q: For TGTGGCACGTGTTCTA, which “relative binding free energy” value is on record?
A: -0.09 kcal/mol

Q: Which “relative binding free energy” value does the source give for CTTGTCACGTGATAGG here?
A: 0.18 kcal/mol

Q: For TGAGTCACGTGTTCTG, which “relative binding free energy” value is on record?
A: 0.08 kcal/mol

Q: For ATATGCACGTGGATAT, which “relative binding free energy” value is on record?
A: 0.06 kcal/mol

Q: With TCTATCACGTGTCGTG as the sequence, how does the “relative binding free energy” value read?
A: 0.2 kcal/mol

Q: How did the “relative binding free energy” value turn out when AAAGGCACGTGTGTAA was run?
A: -0.1 kcal/mol

Q: Which “relative binding free energy” value does the source give for TGGATCACGTGACGGA here?
A: 0.28 kcal/mol

Q: How did the “relative binding free energy” value turn out when GGTGGCACGTGTTCTA was run?
A: 0.05 kcal/mol

Q: With ATAATCACGTGAGGTG as the sequence, how does the “relative binding free energy” value read?
A: 0.39 kcal/mol

Q: For TTTCACACGTGTGTCG, which “relative binding free energy” value is on record?
A: 0.11 kcal/mol

Q: How did the “relative binding free energy” value turn out when CGGGCCACGTGGTGGA was run?
A: -0.24 kcal/mol

Q: How did the “relative binding free energy” value turn out when TTGTACACGTGGTTCG was run?
A: 0.09 kcal/mol

Q: TGGTCCACGTGGGTGA was tested. Which “relative binding free energy” value did it give?
A: -0.15 kcal/mol

Q: Which “relative binding free energy” value does the source give for GTTTGCACGTGAGGGT here?
A: 0.2 kcal/mol

Q: How did the “relative binding free energy” value turn out when TATTTCACGTGCGTAT was run?
A: 0.18 kcal/mol

Q: Which “relative binding free energy” value does the source give for GGAATCACGTGTCGTG here?
A: -0.03 kcal/mol

Q: With AGGCGCACGTGTGGAA as the sequence, how does the “relative binding free energy” value read?
A: -0.06 kcal/mol

Q: Which “relative binding free energy” value does the source give for AGTTTCACGTGATTTT here?
A: 0.31 kcal/mol

Q: With CTTAGCACGTGTTTGT as the sequence, how does the “relative binding free energy” value read?
A: -0.09 kcal/mol

Q: GAGGTCACGTGATAAT was tested. Which “relative binding free energy” value did it give?
A: 0.3 kcal/mol

Q: With TTTATCACGTGGGCTT as the sequence, how does the “relative binding free energy” value read?
A: 0.09 kcal/mol

Q: For AGGTCCACGTGGTTTG, which “relative binding free energy” value is on record?
A: -0.02 kcal/mol

Q: With ATATACACGTGTGTTC as the sequence, how does the “relative binding free energy” value read?
A: -0.07 kcal/mol

Q: With AGAGACACGTGTAGGA as the sequence, how does the “relative binding free energy” value read?
A: 0.09 kcal/mol

Q: How did the “relative binding free energy” value turn out when TTGGACACGTGATAGG was run?
A: 0.27 kcal/mol

Q: How did the “relative binding free energy” value turn out when GTGTGCACGTGCTGAA was run?
A: -0.1 kcal/mol

Q: ATTTGCACGTGTTGGG was tested. Which “relative binding free energy” value did it give?
A: 0.14 kcal/mol

Q: GGCTACACGTGTGGAG was tested. Which “relative binding free energy” value did it give?
A: 0.18 kcal/mol

Q: Which “relative binding free energy” value does the source give for GCAGTCACGTGTAGGG here?
A: 0.15 kcal/mol

Q: GTCCACACGTGGGGTT was tested. Which “relative binding free energy” value did it give?
A: -0.07 kcal/mol

Q: With TCGGCCACGTGCGGGT as the sequence, how does the “relative binding free energy” value read?
A: -0.16 kcal/mol

Q: For ATAGGCACGTGTGCGT, which “relative binding free energy” value is on record?
A: -0.17 kcal/mol

Q: Which “relative binding free energy” value does the source give for GTATTCACGTGCGGGT here?
A: 0.27 kcal/mol

Q: TTGGCCACGTGCTGTT was tested. Which “relative binding free energy” value did it give?
A: -0.09 kcal/mol

Q: Which “relative binding free energy” value does the source give for ATTTCCACGTGATGGT here?
A: 0.17 kcal/mol

Q: Which “relative binding free energy” value does the source give for ATTGACACGTGAATGT here?
A: 0.21 kcal/mol

Q: With GGTCTCACGTGTTAGA as the sequence, how does the “relative binding free energy” value read?
A: 0.17 kcal/mol

Q: With GTCTTCACGTGTATTT as the sequence, how does the “relative binding free energy” value read?
A: 0.41 kcal/mol

Q: GTGGCCACGTGTTTGT was tested. Which “relative binding free energy” value did it give?
A: -0.06 kcal/mol

Q: Which “relative binding free energy” value does the source give for GTGTGCACGTGCCGGA here?
A: -0.06 kcal/mol

Q: How did the “relative binding free energy” value turn out when AGTTACACGTGCGGTG was run?
A: 0.05 kcal/mol

Q: With TTGCTCACGTGTGTGG as the sequence, how does the “relative binding free energy” value read?
A: 0.07 kcal/mol

Q: For AGATACACGTGTGGGA, which “relative binding free energy” value is on record?
A: 0.09 kcal/mol

Q: With ATTTGCACGTGGGGCT as the sequence, how does the “relative binding free energy” value read?
A: -0.21 kcal/mol

Q: Which “relative binding free energy” value does the source give for GGTTCCACGTGGTTGG here?
A: 0.08 kcal/mol

Q: Which “relative binding free energy” value does the source give for ACGAGCACGTGTAGGG here?
A: -0.16 kcal/mol

Q: How did the “relative binding free energy” value turn out when TGTAACACGTGTTTGC was run?
A: -0.01 kcal/mol

Q: Which “relative binding free energy” value does the source give for TGTTGCACGTGTAGTG here?
A: 0.09 kcal/mol

Q: Which “relative binding free energy” value does the source give for ATTTACACGTGGTAGC here?
A: 0.22 kcal/mol

Q: Which “relative binding free energy” value does the source give for GTTGACACGTGATGGA here?
A: 0.19 kcal/mol

Q: GTAATCACGTGTTATA was tested. Which “relative binding free energy” value did it give?
A: 0.18 kcal/mol

Q: For GATGGCACGTGTTCGT, which “relative binding free energy” value is on record?
A: -0.03 kcal/mol

Q: With TTTGGCACGTGGAATG as the sequence, how does the “relative binding free energy” value read?
A: -0.02 kcal/mol

Q: For GTAGACACGTGTGGCG, which “relative binding free energy” value is on record?
A: 0.1 kcal/mol

Q: How did the “relative binding free energy” value turn out when GTTTGCACGTGATGAC was run?
A: 0.4 kcal/mol

Q: TTAACCACGTGTTAGG was tested. Which “relative binding free energy” value did it give?
A: -0.11 kcal/mol

Q: Which “relative binding free energy” value does the source give for TGGAACACGTGAAGAG here?
A: 0.28 kcal/mol

Q: GGGTGCACGTGAGCCG was tested. Which “relative binding free energy” value did it give?
A: 0.08 kcal/mol

Q: TTAGGCACGTGTGTGT was tested. Which “relative binding free energy” value did it give?
A: -0.09 kcal/mol

Q: How did the “relative binding free energy” value turn out when TGGGTCACGTGTTAGG was run?
A: 0.1 kcal/mol

Q: How did the “relative binding free energy” value turn out when GAGGTCACGTGTGATG was run?
A: 0.24 kcal/mol

Q: With TTTGACACGTGTAAAT as the sequence, how does the “relative binding free energy” value read?
A: 0.17 kcal/mol

Q: For CTTGACACGTGTGGTT, which “relative binding free energy” value is on record?
A: 0.16 kcal/mol
